The list shows a part of the results. No stated cut-off is given here; in the data, active = 3.2 or more and inactive = the rest. Only a few entries rise above the background.

To fix the notation:
B1: PTEN_Y177_R173H_YF (peptide)
chain: RHFVFYFSFLL
B2: PTEN_Y178_R173P (peptide)
chain: PYVYYYSYLLK
B3: PTEN_Y27_Y27S (peptide)
chain: DLDLTSIYPNI
B4: PTEN_Y177_R173P (peptide)
chain: RPYVYYYSYLL
B5: PTEN_Y176_Y174N (peptide)
chain: QRRNVYYYSYL
B6: PTEN_Y178_V175L_YF (peptide)
chain: RFLFFYSFLLK
B7: PTEN_Y178_Y174N (peptide)
chain: RNVYYYSYLLK
B8: PTEN_Y177_Y174N (peptide)
chain: RRNVYYYSYLL
B9: PTEN_Y180_V175L (peptide)
chain: LYYYSYLLKNH
B10: PTEN_Y177_R173H (peptide)
chain: RHYVYYYSYLL
B11: PTEN_Y27_L25F_YF (peptide)
chain: DLDFTYIFPNI
B12: PTEN_Y176_YF (peptide)
chain: QRRFVYFFSFL
B13: PTEN_Y177_YF (peptide)
chain: RRFVFYFSFLL
B14: PTEN_Y178_V175L (peptide)
chain: RYLYYYSYLLK
B15: PTEN_Y177_R173P_YF (peptide)
chain: RPFVFYFSFLL
B16: PTEN_Y180_YF (peptide)
chain: VFFFSYLLKNH
B17: PTEN_Y178_Y174N_YF (peptide)
chain: RNVFFYSFLLK
B18: PTEN_Y176_R173H_YF (peptide)
chain: QRHFVYFFSFL
B19: PTEN_Y177_V175L (peptide)
chain: RRYLYYYSYLL
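Further: displayed peptides selected on beads carrying the immobilized SH2 domain, with library peptides lacking any tyrosine serving as negative controls.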

The first assay addresses SHP2 C-SH2 domain E139D. Kind of assay: enrichment score (SH2-bound / input frequency) (ratio); bacterial display of known human phosphotyrosine sites (pTyr-Var adds point mutants) read by sequencing; higher = stronger binding; tyrosines were phosphorylated by kinases first. To be noted: peptide library: pTyr-Var.
Regarding B1, the enrichment score was inactive: 0.996.
Still for that read-out and setting: next, B2: inactive: 0.86.
The same measure, in the same setting: the figure for B3 is inactive: 0.649.
Still for that read-out and setting: next, B4: inactive: 1.72; B5: inactive: 0.541.
B6: the enrichment score was inactive: 1.39.
Still for that read-out and setting: the figure for B7 is inactive: 2.71.
Take B8: the enrichment score was inactive: 0.293.
On to B9, for which the enrichment score was inactive: 1.27.
The same measure, in the same setting: the figure for B10 is inactive: 2.01.
On the same count and under the same terms, next, B11: inactive: 1.14; B12: inactive: 1.05; B13: inactive: 0.355.
On the same count and under the same terms, the figure for B14 is inactive: 2.5; for B15 it is inactive: 1.28; for B16 it is inactive: 1.5.
On to B17, for which the enrichment score was inactive: 2.15.
In the case of B18, the enrichment score is inactive: 1.86.
In the case of B19, the enrichment score is inactive: 0.299.

Another assay deals with SHP2 C-SH2 domain wild-type. The assay is described as above. To be noted: peptide library: pTyr-Var.
Turning to B1, the enrichment score is inactive: 0.958.
In the case of B2, the enrichment score is inactive: 1.03.
Still for that read-out and setting: the figure for B3 is inactive: 0.546; for B4 it is inactive: 1.79.
On the same count and under the same terms, the figure for B5 is inactive: 0.564; for B6 it is inactive: 1.48.
Still for that read-out and setting: the figure for B7 is inactive: 2.58; for B8 it is inactive: 0.22; for B9 it is inactive: 1.63.
In the case of B10, the enrichment score is inactive: 2.38.
B11: the enrichment score is inactive: 1.28.
Turning to B12, the enrichment score is inactive: 1.17.
On the same count and under the same terms, next, B13: inactive: 0.239; B14: inactive: 2.86.
The same measure, in the same setting: next, B15: inactive: 1.57.
Same read-out and setting: the figure for B16 is inactive: 2.04; for B17 it is inactive: 1.84.
With B18, the enrichment score is inactive: 2.35.
Still for that read-out and setting: next, B19: inactive: 0.209.

The target of a further assay is SHP2 N-SH2 domain L43F. The assay is described as above. The conditions noted are these: peptide library: pTyr-Var.
B1: the enrichment score was inactive: 1.46.
On the same count and under the same terms, the figure for B2 is inactive: 0.945; for B3 it is inactive: 0.778.
Same read-out and setting: the figure for B4 is inactive: 0.902; for B5 it is inactive: 0.753.
Still for that read-out and setting: next, B6: inactive: 1.07; B7: inactive: 2.33.
Regarding B8, the enrichment score was inactive: 0.311.
On the same count and under the same terms, next, B9: inactive: 2.21; B10: inactive: 1.9.
B11: the enrichment score was inactive: 1.06.
Same read-out and setting: next, B12: inactive: 0.831; B13: inactive: 0.254; B14: inactive: 2.9.
B15: the enrichment score was inactive: 0.916.
The same measure, in the same setting: the figure for B16 is inactive: 1.86.
Still for that read-out and setting: the figure for B17 is inactive: 1.68.
As to B18, the enrichment score is inactive: 1.52.
As to B19, the enrichment score was inactive: 0.379.

The target of a further assay is SHP2 N-SH2 domain T42A. Described as above. The conditions noted are these: peptide library: pTyr-Var.
As to B1, the enrichment score was inactive: 1.09.
Consider B2, for which the enrichment score was inactive: 0.924.
In the case of B3, the enrichment score is inactive: 0.583.
For B4, the enrichment score is inactive: 1.29.
Same read-out and setting: the figure for B5 is inactive: 0.555.
On the same count and under the same terms, next, B6: inactive: 1.29; B7: inactive: 2.32.
Still for that read-out and setting: the figure for B8 is inactive: 0.229; for B9 it is inactive: 2.19; for B10 it is inactive: 1.93.
For the molecule B11, the enrichment score is inactive: 0.996.
The same measure, in the same setting: next, B12: inactive: 0.851; B13: inactive: 0.286; B14: inactive: 2.37.
On the same count and under the same terms, the figure for B15 is inactive: 1.24; for B16 it is inactive: 1.63; for B17 it is inactive: 1.75.
On the same count and under the same terms, the figure for B18 is inactive: 1.81; for B19 it is inactive: 0.293.

In the next assay the target is SHP2 N-SH2 domain T52S. Described as above. To be noted: peptide library: pTyr-Var.
For B1, the enrichment score is inactive: 1.2.
Take B2: the enrichment score is inactive: 1.09.
Consider B3, for which the enrichment score is inactive: 0.766.
For the molecule B4, the enrichment score was inactive: 1.11.
The same measure, in the same setting: next, B5: inactive: 0.714; B6: inactive: 1.45.
For the molecule B7, the enrichment score is inactive: 2.31.
As to B8, the enrichment score was inactive: 0.208.
Take B9: the enrichment score is inactive: 2.21.
As to B10, the enrichment score was inactive: 1.57.
Regarding B11, the enrichment score is inactive: 0.977.
For B12, the enrichment score was inactive: 1.16.
On the same count and under the same terms, next, B13: inactive: 0.32; B14: inactive: 2.8; B15: inactive: 0.941.
Take B16: the enrichment score is inactive: 1.7.
As for B17, the enrichment score was inactive: 1.98.
Still for that read-out and setting: the figure for B18 is inactive: 2.34; for B19 it is inactive: 0.607.

In another assay the target is SHP2 N-SH2 domain wild-type. Described as above. The conditions noted are these: peptide library: pTyr-Var.
With B1, the enrichment score was inactive: 0.807.
On the same count and under the same terms, the figure for B2 is inactive: 0.796; for B3 it is inactive: 0.661.
Turning to B4, the enrichment score is inactive: 1.23.
As to B5, the enrichment score was inactive: 0.5.
Same read-out and setting: next, B6: inactive: 1.
Still for that read-out and setting: the figure for B7 is inactive: 2.2; for B8 it is inactive: 0.205.
On to B9, for which the enrichment score was inactive: 1.57.
For the molecule B10, the enrichment score is inactive: 1.56.
Consider B11, for which the enrichment score was inactive: 1.02.
On the same count and under the same terms, next, B12: inactive: 0.706; B13: inactive: 0.389; B14: inactive: 2.15.
Still for that read-out and setting: the figure for B15 is inactive: 1.36; for B16 it is inactive: 1.55; for B17 it is inactive: 1.86.
The same measure, in the same setting: next, B18: inactive: 2.39; B19: inactive: 0.537.

(Values after the supplement of paper PMC10369915.)
